# Test results published in article PMC12136788.
# The list shows a part of the results.
# T1: UNK ZnF1-3 (human, UniProt Q9C0B0 31-174)
# T1 sequence: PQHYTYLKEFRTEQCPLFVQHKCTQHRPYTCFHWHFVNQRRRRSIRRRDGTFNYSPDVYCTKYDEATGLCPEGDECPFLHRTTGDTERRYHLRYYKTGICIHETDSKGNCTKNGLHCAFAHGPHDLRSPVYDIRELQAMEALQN
# B1: chr8:95500983:95500984:-_ENSG00000164944_ENST00000437199|hu_hu|hu_hu_hu_mus_True|48_78 (ssRNA)
# RNA: GGGAGUUCUACAGUCCGACGAUCAGAACACAUCUAUCGAGUAAAGGACCGUACAUGGACGACCUCUCCACUGCCUCCACUAACAAAACUUUCCUCUGAGCCUCCACUGCCGCUAUUUGUACUAGCCCAGGACGGUCCCAGGCCCAACAGAGGAUUGAGCAUCA
# B2: chr3:75345182:75345183:-_ENSMUSG00000027835_ENSMUST00000161137|mus_mus|FALSE|FALSE (ssRNA)
# RNA: GGGAGUUCUACAGUCCGACGAUCAAGUGGUCUCAGCUUCAUUCUUCAUCUCUUCCAUUGUCAUCCUCAUUCAAAAGCCAACUACAGUAGAAAAAGCAAUGCUAAAAUGCAGAGGAAUCUUCAUUCACUGCCGAAUUUCUUCCCCAACAGAGGAUUGAGCAUCA
# B3: 139818580_139821097_150_3pUTR_ENSMUSG00000045438_ENSMUST00000049630|mouse|control|control (ssRNA)
# RNA: GGGAGUUCUACAGUCCGACGAUCUGUCACGGAGACACCUCAUGAAUUUUUCUUUAAAGCUUUUACAUUCACCGAAGUGGUCCAGCGGGAAGCUGCCUUUGUCUGGGGGCCGCGGCUGGAAGCUUUUGGUCCCGAAGUUCAUUGCAACAGAGGAUUGAGCAUCA
# B4: chr6:67234108:67234109:+_ENSMUSG00000036371_ENSMUST00000042990|mus_mus|FALSE|FALSE (ssRNA)
# RNA: GGGAGUUCUACAGUCCGACGAUCCUACCAAUACAUUUCUAAAUACAAAACUGACUAACAUAUUUUGUUACUUCUGUGUAGCUAGAGAAGUUCGUUUUCAAAACAGAUAAAAUUCAGUCUUUAGGUGUGAAUGGUAUGAAUGACCAACAGAGGAUUGAGCAUCA
# B5: chr18:52893488:52893489:-_ENSG00000196628_ENST00000354452|hu_hu|hu_hu_hu_mus_True|1_48 (ssRNA)
# RNA: GGGAGUUCUACAGUCCGACGAUCUAUUUAGACCAUUUCCGCGGAGUUAUGGCAUUUACUCAGUGCUGAUAGGUGGAAAAACUACUUGAACAGGGAUUUUUUUUUUCCUUAAUACAUGCCAAGAUUGUGUGGCUGUCAAAAAUACAACAGAGGAUUGAGCAUCA
# B6: chr12:45383586:45383587:+_ENSMUSG00000036257_ENSMUST00000043082|mus_mus|motif|central (ssRNA)
# RNA: GGGAGUUCUACAGUCCGACGAUCAAAUAUAUAUAUCUAGAGUCAAAUUAAUAGACAUAACUUAAAAAUCAUUUAUUUUCGGUGUGACAUUCUCUCAUUCCAUUCCUGAAUGCUUCAUUUAGGAAAUUCCAUAAUUCAUGGUCUCAACAGAGGAUUGAGCAUCA
# B7: chrX:119680447:119680448:-_ENSG00000158290_ENST00000371322|hu_hu|FALSE|FALSE (ssRNA)
# RNA: GGGAGUUCUACAGUCCGACGAUCAAACAAAAAAAUGCUCCUGAUCAUGAUCAUUUGUCUGCAAUGGUUUUGCCAGCAUCUAUCAAUCUUCUUUAAAAAAAGAACGCUAUCCAAUGAAUCCUCUCUGAAUUGAUGAAUCUGUGCCAACAGAGGAUUGAGCAUCA
# B8: chr11:251552:251553:+_ENSG00000185627_ENST00000382671|hu_hu|FALSE|FALSE (ssRNA)
# RNA: GGGAGUUCUACAGUCCGACGAUCUAGCACUUUUGGCAAUUUCUUCAAAAGUGAGUUGUCUGUGAUUGGCAGGUCGUGUGAAAGUCAUCUCCAUGAGGCACAACAACUGAAUUUUCCUCAGAAGCUGGGCUUCAUUAGCUGCUACAACAGAGGAUUGAGCAUCA
# B9: chr14:22594296:22594297:+_ENSMUSG00000021770_ENSMUST00000119430|mus_hu|FALSE|FALSE (ssRNA)
# RNA: GGGAGUUCUACAGUCCGACGAUCAUCAUAUUCAGUCAAUGUUAGCAAUGUGAUUCCAUCAAGUCGGUGCUUAUUGCAUAAAAUGUCCACAUAUUCAAAAAAGCCUUCAUCCUUCAGCCACACAGCUACAUGCUUGGUAGUCCACAACAGAGGAUUGAGCAUCA
# B10: chr2:47388980:47388981:-_ENSG00000143933_ENST00000272298|hu_hu|FALSE|FALSE (ssRNA)
# RNA: GGGAGUUCUACAGUCCGACGAUCUUCAUCUGUUAACUUCUCUCCAAGGUUUGUCAUCACAUGGCGAAGUUCUGCAGCACUAAUAUAGCCAUUGCCAUCCUUAUCAAACACACGGAAUGCUUCUCUAAUUUCUUCUUCACUGUCCAACAGAGGAUUGAGCAUCA
# B11: 58329970_58341467_288_3pUTR_ENSMUSG00000027810_ENSMUST00000029387|mouse|control|control (ssRNA)
# RNA: GGGAGUUCUACAGUCCGACGAUCCUUCCAGAUUCUCUGGGAAGCACCGUGCUUUCUGUGAAGUGUGGUGGUCCAUUCACCAUGUACAGUCCCUCUGAUCCUCUGACUGUCAACAGCGGUGUGGACGGCGCCAUCUUGUCCCGGCAACAGAGGAUUGAGCAUCA
# B12: chr9:66219764:66219765:+_ENSMUSG00000038664_ENSMUST00000042824|mus_hu|FALSE|FALSE (ssRNA)
# RNA: GGGAGUUCUACAGUCCGACGAUCUUCAAAGUCUGGCAACUGUGGUCCUUUGAGGCAUAAAACUUGUUGGGGCAAAGGUACUACUUCCUUAUUGCUAACCAGUUUAGAAUACAGAACAGCAACUCCCUCUCUUGUAGCAAUAGACAACAGAGGAUUGAGCAUCA
# B13: chr1:25278652:25278653:-_ENSMUSG00000033569_ENSMUST00000126626|mus_hu|FALSE|FALSE (ssRNA)
# RNA: GGGAGUUCUACAGUCCGACGAUCGCAGAUACUCUUAUUAUGUGUCUGAGUCUGUCCAACCAGUAUGAGGAUAUUGGAUGAGAUGAUAGACAGGCAGAAGUUAAUUAGUAUUAUGGAUCUCUCAGAGCGUAUGUACCUCCAUAACAACAGAGGAUUGAGCAUCA
# B14: 23377172_23382573_874_CDS_ENSMUSG00000026158_ENSMUST00000027343|mouse|control|control (ssRNA)
# RNA: GGGAGUUCUACAGUCCGACGAUCCUCCACUAGAGCCUCGUGAAGAAUGAAUUUUACCAGAGGAGAUUUAAAACUCUCGUAUCCAAGCUCGCCAAGGCUUUUAAGAAUUCGCGUAAUUCUUAAAUAGUUGUGCUGAGACUCAUUCAACAGAGGAUUGAGCAUCA
# B15: 77635040_77672404_243_CDS_ENSG00000142892_ENST00000370812|human|control|control (ssRNA)
# RNA: GGGAGUUCUACAGUCCGACGAUCAUUACAGGCCAUAUCAUCUGCAAGCAUUAGGACAAUGUGACUGUCAGGAAUACCUAGCCUCUUGACACUUCUAUAAACAGAAAGGGUAUUUGCAACAUGUCGAUAAUUAAACCAGAAUCGCAACAGAGGAUUGAGCAUCA
# B16: chr9:100883651:100883652:-_ENSG00000106789_ENST00000375077|hu_hu|FALSE|FALSE (ssRNA)
# RNA: GGGAGUUCUACAGUCCGACGAUCGGGUAUGGAAUAAGGAGAUGAGAGCAUGCUCUGCCAACUGGCUGGGACCUGAAUGUGCUAGGCAAGUUCCACUACAUCAGCUCAAGAACAUAAACAAAAAUGUAAUUUAAAAAACAGAUGCAACAGAGGAUUGAGCAUCA
# B17: 32062031_32064210_2217_CDS_ENSMUSG00000039262_ENSMUST00000036691|mouse|control|control (ssRNA)
# RNA: GGGAGUUCUACAGUCCGACGAUCAGAAGGUGGGGGGUAGACCGGCUGCCAGUGCUGCAUCUUGUACAGCUGCUCCUGCUGCUGCUGCUGCUGCUGUUGCUGCUGUUGCUGCUGCUGCUGGCGCUGGAAACGGGGAGGAAGGGACAACAGAGGAUUGAGCAUCA
# B18: 45960315_45960516_619_CDS_ENSMUSG00000021832_ENSMUST00000022380|mouse|control|control (ssRNA)
# RNA: GGGAGUUCUACAGUCCGACGAUCAUUAAACAUUUCUCUAAUCAAACGAGCACUUUCACCAAUGUACUUGUCUACAAUAGAACUAGAUACAACCUUUAGGAAGUUGCAGUCCAGCUGGCUGGCAACAGCUCGUGCCAAGAGUGUCAACAGAGGAUUGAGCAUCA
# B19: chr22:32879901:32879902:+_ENSG00000100225_ENST00000397426|hu_mus|hu_hu_hu_mus_False|18_18 (ssRNA)
# RNA: GGGAGUUCUACAGUCCGACGAUCCUCUUCCAUACUCAUGGCAUCCUGAAUUGACUCAGCUUCAACAUUUUGACUAGGCCCUUCCAUACUGUCAUCAGUCCAGGCAUCAAAUGGGGUUGCCUGUCCUUGGGAUGAAUCAGUCCCCAACAGAGGAUUGAGCAUCA
# B20: chr3:45751083:45751084:+_ENSG00000211456_ENST00000389061|hu_mus|FALSE|FALSE (ssRNA)
# RNA: GGGAGUUCUACAGUCCGACGAUCCCAUACAAACCGCUGAUCUGCCCUUUCUAAGAGACUCAUUUCUUGGAAUUCUGGACUCGUGUUAGAUAGUCGCUGCAAAGUAUGAGUCAAGUCAUAUGUUGUUGAAAAGUAAAAUCCAUCCAACAGAGGAUUGAGCAUCA
# B21: chr3:9412954:9412955:+_ENSG00000134077_ENST00000452837|hu_mus|hu_hu_hu_mus_False|8_8 (ssRNA)
# RNA: GGGAGUUCUACAGUCCGACGAUCGGUUGAUAUCUCUUCUUUGAUGGCUGGAUUUUCAUAAUAGUCCAAGAUAUGUGAAUCUGAAGUGCUGCUGGCAUGCUUUUUCUUACCAUCUUUCUCAUCUGCUUUGACUUCUUGUCCACACAACAGAGGAUUGAGCAUCA
# B22: 88725732_88725852_108_5pUTR_ENSMUSG00000018428_ENSMUST00000018572|mouse|control|control (ssRNA)
# RNA: GGGAGUUCUACAGUCCGACGAUCGCACUCAAUCCUCCCGCCACCGCCCCCUGGCCCCCCACCUAGUCCAGCGGCCCUGCCCCGCAGCGCUGCACGGCGCUUCGGCCGCUCCCCCACGUGCUAGCCCAGGCCGGGCGAACACAGCAACAGAGGAUUGAGCAUCA
# Target: T1, UNK ZnF1-3
# Test: nsRBNS (natural sequence RNA bind-n-seq); RBNS binding buffer (assumed for nsRBNS): 25 mM Tris pH 7.5, 150 mM KCl, 3 mM MgCl2, 0.01% Triton X-100, 500 ug/ml BSA, 20 U/ml SUPERase-In, 4 C; UNK is unkempt and MSI1 is Musashi-1; names of the RNAs are library labels; protein concentration not given here; high values mean tight binding
row,Binder,binding signal
1,B1,1.51 enrichment R
2,B2,1.31 enrichment R
3,B3,0.619 enrichment R
4,B4,1.29 enrichment R
5,B5,0.963 enrichment R
6,B6,1.07 enrichment R
7,B7,1.21 enrichment R
8,B8,0.614 enrichment R
9,B9,1 enrichment R
10,B10,0.842 enrichment R
11,B11,0.521 enrichment R
12,B12,0.992 enrichment R
13,B13,1.09 enrichment R
14,B14,0.967 enrichment R
15,B15,1.32 enrichment R
16,B16,2.85 enrichment R
17,B17,0.769 enrichment R
18,B18,0.427 enrichment R
19,B19,0.936 enrichment R
20,B20,1.03 enrichment R
21,B21,0.278 enrichment R
22,B22,1.02 enrichment R
